Data: PMC6032326, “Connexin43 Carboxyl-Terminal Domain Directly Interacts with β-Catenin” (International Journal of Molecular Sciences, 2018)

Molecular target: the molecule itself
Test: SPR; Biacore 1000, 25 °C; Cx43CT (S255–I382) immobilised on a CM5 chip by amine coupling; 213 mM phosphate buffer pH 7.1, 5 μL/min; 5 μL injections of β-catenin CT (4 μM) or Cx43CT (10 μM)

B1: Connexin43 carboxyl-terminal domain ([…]) (domain or fragment)
chain: not shown
notes: Connexin43 (Cx43), rat, carboxyl-terminal domain, […], the construct of the SPR study; Used both immobilised on the chip and as analyte (positive control); also called Cx43CT ([…]); Cx43CT; source: bacterial expression vector pGEX-6P-2, expressed and purified in 1x PBS as previously described
B1: binds.
